The record followed here is patent US7517874B2 (priority 2007, dated 2009).

In general, EC50 refers to the concentration needed to bring the measured effect to its halfway point.

Sequence of human CB2 receptor (hCB2) (P34972 whole entry): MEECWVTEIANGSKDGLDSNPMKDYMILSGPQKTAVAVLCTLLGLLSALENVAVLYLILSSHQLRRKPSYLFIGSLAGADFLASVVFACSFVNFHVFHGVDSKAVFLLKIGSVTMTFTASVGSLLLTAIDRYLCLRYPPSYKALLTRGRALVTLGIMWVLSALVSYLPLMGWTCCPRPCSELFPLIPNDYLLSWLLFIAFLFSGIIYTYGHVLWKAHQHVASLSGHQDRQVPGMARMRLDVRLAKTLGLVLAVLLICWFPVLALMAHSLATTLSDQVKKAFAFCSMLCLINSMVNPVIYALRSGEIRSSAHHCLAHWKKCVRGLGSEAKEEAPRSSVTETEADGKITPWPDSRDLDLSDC

The first experiment concerns the target human CB2 receptor (hCB2) (Homo sapiens, UniProt P34972). Put plainly: cell-based. It counts as cell-based.
Conditions: not given
In turn, `CNC(=O)[C@H](CC(C)(C)C)NC(=O)c1nc(-c2cc(F)ccc2F)n2c1CN(C)CCC2` [Compound 553, (S)-3-(2,5-difluorophenyl)-N-(4,4-dimethyl-1-(methylamino)-1-oxopentan-2-yl)-8-methyl-6,7,8,9-tetrahydro-5H-imidazo[1,5-a][1,4]diazepine-1-carboxamide] came in with an EC50 of over 10000 nM.

On to `COC(=O)[C@@H](NC(=O)c1nc(-c2ccc(C)cc2F)n2c1CNCCC2)C(C)(C)C` [Compound 466], for which the EC50 was over 10000 nM. Same read-out and setting: the same measure for `C[C@H](NC(=O)c1nc(-c2ccccc2)n2c1CN(CCO)CC2)c1ccccc1` [Compound 146, (S)-7-(2-hydroxyethyl)-3-phenyl-N-(1-phenylethyl)-5,6,7,8-tetrahydroimidazo[1,5-a]pyrazine-1-carboxamide]: over 10000 nM; for `C[C@@H](NC(=O)c1nc(-c2ccccc2)n2c1CN(C(=O)C1CC1)CC2)C1CCCCC1` [Compound 132, (R)-N-(1-cyclohexylethyl)-7-(cyclopropanecarbonyl)-3-phenyl-5,6,7,8-tetrahydroimidazo[1,5-a]pyrazine-1-carboxamide]: over 10000 nM. The molecule `CNC(=O)[C@@H](NC(=O)c1nc(-c2ccc(OC)c(C)c2)n2c1CN(C)CCC2)C(C)(C)C` [Compound 350, (S)-N-(3,3-dimethyl-1-(methylamino)-1-oxobutan-2-yl)-3-(4-methoxy-3-methylphenyl)-8-methyl-6,7,8,9-tetrahydro-5H-imidazo[1,5-a][1,4]diazepine-1-carboxamide] gave an EC50 of over 10000 nM.

The same experiment, now with this note: agonist or inverse agonist at hCB2.
With `CNC(=O)[C@@H](NC(=O)c1nc(-c2ccccc2)n2c1CN(C(=O)NC(C)(C)C)CC2)C(C)(C)C` [Compound 192, (S)-N7-tert-butyl-N1-(3,3-dimethyl-1-(methylamino)-1-oxobutan-2-yl)-3-phenyl-5,6-dihydroimidazo[1,5-a]pyrazine-1,7(8H)-dicarboxamide], the “+/− HCB2” value is on record as “+”. Still for that read-out and setting: the same measure for `CNC(=O)[C@@H](NC(=O)c1nc(-c2cccc(F)c2F)n2c1CN(C)CC2)C(C)(C)C` [Compound 261, (S)-3-(2,3-difluorophenyl)-N-(3,3-dimethyl-1-(methylamino)-1-oxobutan-2-yl)-7-methyl-5,6,7,8-tetrahydroimidazo[1,5-a]pyrazine-1-carboxamide]: “+”; for `Cc1ccc(-c2nc(C(=O)N[C@H](c3nc(C)no3)C(C)(C)C)c3n2CCCN(C)C3)c(F)c1` [Compound 522, (S)-N-(2,2-dimethyl-1-(3-methyl-1,2,4-oxadiazol-5-yl)propyl)-3-(2-fluoro-4-methylphenyl)-8-methyl-6,7,8,9-tetrahydro-5H-imidazo[1,5-a][1,4]diazepine-1-carboxamide]: “+”.

In the case of `CNC(=O)[C@@H](NC(=O)c1nc(-c2cc(C)ccc2F)n2c1CN(C)CCC2)C(C)(C)C` [Compound 362, (S)-N-(3,3-dimethyl-1-(methylamino)-1-oxobutan-2-yl)-3-(2-fluoro-5-methylphenyl)-8-methyl-6,7,8,9-tetrahydro-5H-imidazo[1,5-a][1,4]diazepine-1-carboxamide], the “+/− HCB2” value is listed as “+”.

As for `C/C=C/c1nc(C(=O)N[C@H](C(=O)NC)C(C)(C)C)c2n1CCN(C)C2` [Compound 243, (S,E)-N-(3,3-dimethyl-1-(methylamino)-1-oxobutan-2-yl)-7-methyl-3-(prop-1-enyl)-5,6,7,8-tetrahydroimidazo[1,5-a]pyrazine-1-carboxamide], the “+/− HCB2” value is “+”. Still for that read-out and setting: the same measure for `CNC(=O)[C@@H](NC(=O)c1nc(-c2ccccc2)n2c1CN(C(=O)C(C)C)CC2)C(C)(C)C` [Compound 191, (S)-N-(3,3-dimethyl-1-(methylamino)-1-oxobutan-2-yl)-7-isobutyryl-3-phenyl-5,6,7,8-tetrahydroimidazo[1,5-a]pyrazine-1-carboxamide]: “−”; for `CC(C)C[C@H](NC(=O)c1nc(-c2ccc(Cl)cc2F)n2c1CN(C)CCC2)C(N)=O` [Compound 564, (S)-N-(1-amino-4-methyl-1-oxopentan-2-yl)-3-(4-chloro-2-fluorophenyl)-8-methyl-6,7,8,9-tetrahydro-5H-imidazo[1,5-a][1,4]diazepine-1-carboxamide]: “+”. On the same count and under the same terms, the same measure for `CNC(=O)[C@@H](NC(=O)c1nc(C2CC2)n2c1CN(C)CC2)C(C)(C)C` [Compound 269, (S)-3-cyclopropyl-N-(3,3-dimethyl-1-(methylamino)-1-oxobutan-2-yl)-7-methyl-5,6,7,8-tetrahydroimidazo[1,5-a]pyrazine-1-carboxamide]: “+”; for `CCCC/C=C/c1nc(C(=O)N[C@H](C(=O)NC)C(C)(C)C)c2n1CCCN(C)C2` [Compound 400, (S,E)-N-(3,3-dimethyl-1-(methylamino)-1-oxobutan-2-yl)-3-(hex-1-enyl)-8-methyl-6,7,8,9-tetrahydro-5H-imidazo[1,5-a][1,4]diazepine-1-carboxamide]: “+”; for `CNC(=O)[C@@H](NC(=O)c1nc(-c2ccccc2)n2c1CN(C(=O)Nc1ccccc1)CC2)C(C)(C)C` [Compound 194, (S)-N1-(3,3-dimethyl-1-(methylamino)-1-oxobutan-2-yl)-N7,3-diphenyl-5,6-dihydroimidazo[1,5-a]pyrazine1,7-(8H)-dicarboxamide]: “+”. In the case of `CNC(=O)[C@@H](NC(=O)c1nc(-c2ccccc2F)n2c1CN(C)CCC2)C(C)(C)C` [Compound 353, (S)-N-(3,3-dimethyl-1-(methylamino)-1-oxobutan-2-yl)-3-(2-fluorophenyl)-8-methyl-6,7,8,9-tetrahydro-5H-imidazo[1,5-a][1,4]diazepine-1-carboxamide], the “+/− HCB2” value was “+”. Still for that read-out and setting: the same measure for `CNC(=O)[C@H](CC(C)(C)C)NC(=O)c1nc(-c2ccc(C(F)(F)F)cc2F)n2c1CN(C)CCC2` [Compound 551, (S)-N-(4,4-dimethyl-1-(methylamino)-1-oxopentan-2-yl)-3-(2-fluoro-4-(trifluoromethyl)phenyl)-8-methyl-6,7,8,9-tetrahydro-5H-imidazo[1,5-a][1,4]diazepine-1-carboxamide]: “+”; for `CNC(=O)[C@@H](NC(=O)c1nc(Cc2ccccc2)n2c1CN(C)CCC2)C(C)(C)C` [Compound 459, (S)-3-benzyl-N-(3,3-dimethyl-1-(methylamino)-1-oxobutan-2-yl)-8-methyl-6,7,8,9-tetrahydro-5H-imidazo[1,5-a][1,4]diazepine-1-carboxamide]: “+”.

Take `CC(C)(C)OC(=O)N1CCn2c(-c3ccccc3)nc(C(=O)NC3CCCCC3)c2C1` [Compound 36, tert-butyl 1-(cyclohexylcarbamoyl)-3-phenyl-5,6-dihydroimidazo[1,5-a]pyrazine-7(8H)-carboxylate]: the “+/− HCB2” value was “−”.

The experiment is the same for the next values; noted with them: groups >100 nM-10 μM and >10 μM; cAMP, CHO-K1 hCB2; read-out: EC50 HCB2.
As to `CN1CCn2c(-c3ccc(Cl)cc3F)nc(C(=O)NC3CCN(S(C)(=O)=O)CC3)c2C1` [Compound 213, 3-(4-chloro-2-fluorophenyl)-7-methyl-N-(1-(methylsulfonyl)piperidin-4-yl)-5,6,7,8-tetrahydroimidazo[1,5-a]pyrazine-1-carboxamide], the EC50 was over 10000 nM. Still for that read-out and setting: for `O=C(Nc1ccccc1)c1nc(-c2ccccc2)n2c1CNCC2` [Compound 41, N,3-diphenyl-5,6,7,8-tetrahydroimidazo[1,5-a]pyrazine-1-carboxamide] the value was over 10000 nM.
